Laboratory results as given in ChEMBL document CHEMBL5606458, “ASAP - ZIKV NS2B-NS3 protease fluorescence single point” (2024).
Values joined by “and” are separate entries in the source; they are usually repeats but may differ in a detail not shown here. Equal entries are not always repeated. Hit rate of the full screen: of about 2,700 compounds, about 160 (5.9%) showed an effect of 50% or more. The list shows a part of the results.

Molecular target: Nonstructural protein 3 (Zika virus) (UniProt A0A024AXB9)
UniProt A0A024AXB9, sequence (A0A024AXB9 as listed by the source): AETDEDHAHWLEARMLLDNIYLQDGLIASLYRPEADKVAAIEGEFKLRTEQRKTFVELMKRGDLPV

[1] = PRVABC59, Concentration 15.0 uM, Number of replicates 1.0
[2] = PRVABC59, Concentration 10.0 uM, Number of replicates 1.0
[3] = PRVABC59, Concentration 50.0 uM, Number of replicates 1.0

Q: CN1CCN(C(=O)c2cc(Cl)ccc2NS(=O)(=O)c2ccc(Oc3ccccc3Cl)cc2)[C@H](c2ccccc2)C1 was tested. Which inhibition [1] did it give?
A: 13.2% and 16.2%

Q: With O=C1Nc2ccccc2C[C@]12CCCN2 as the molecule, how does the inhibition (PRVABC59, Concentration 99.5 uM, Number of replicates 2.0, Standard deviation 0.2837885551901611 %) read?
A: -8.23%

Q: COc1ccc([C@H](C)NC(=O)C2CCN(c3ccc(C=O)cc3)CC2)cc1 was tested. Which inhibition [2] did it give?
A: 23.1%

Q: How did the inhibition [3] turn out when COc1cc2c(cc1OC)CN(C(=O)C1CCN(c3ccc(C=O)cc3)CC1)CC2 was run?
A: 22.4%

Q: For O=Cc1ccc(N2CCC(C(=O)NCc3cccc(OC(F)F)c3)CC2)cc1, which inhibition [2] is on record?
A: 23.3%

Q: What does the source list for COC(=O)[C@@H](C)NC(=O)c1cc(OC)nc(N2CCNCC2)n1?
A: inhibition (PRVABC59, Concentration 49.5 uM, Number of replicates 2.0, Standard deviation 1.3123589594507579 %): -3.04%; inhibition (PRVABC59, Concentration 99.01 uM, Number of replicates 2.0, Standard deviation 1.4734111713301623 %): -3.74%; inhibition (PRVABC59, Concentration 198.0 uM, Number of replicates 2.0, Standard deviation 1.229656305960256 %): -2.29%

Q: How did the inhibition (PRVABC59, Concentration 49.5 uM, Number of replicates 2.0, Standard deviation 3.997653532192617 %) turn out when CC(C)(CO)NC(=O)c1cc(Cl)cc(NC(=O)c2ccc3c(c2)NC(=O)CS3)c1 was run?
A: 5.15%

Q: What about the inhibition (PRVABC59, Concentration 99.01 uM, Number of replicates 2.0, Standard deviation 0.5148338698042132 %) of the same molecule?
A: 7.42%

Q: What about the inhibition (PRVABC59, Concentration 198.0 uM, Number of replicates 2.0, Standard deviation 0.09640366671072623 %) of the same molecule?
A: 15.1%

Q: COc1cc(C(=O)NCC2CC2)nc(N2CCNCC2)n1 was tested. Which inhibition (PRVABC59, Concentration 49.5 uM, Number of replicates 2.0, Standard deviation 3.6236773803912077 %) did it give?
A: -0.874%

Q: And the inhibition (PRVABC59, Concentration 99.01 uM, Number of replicates 2.0, Standard deviation 3.547504116672014 %)?
A: -0.429%

Q: And the inhibition (PRVABC59, Concentration 198.0 uM, Number of replicates 2.0, Standard deviation 3.8543740562743776 %)?
A: -1.35%

Q: How did the inhibition [1] turn out when CN(CCCCc1ccccc1)C(=O)c1cc(Cl)ccc1NS(=O)(=O)c1ccc(Oc2ccccc2Cl)cc1 was run?
A: 28.4%

Q: With c1ccc2c([C@H]3CCN(Cc4ccon4)C3)c[nH]c2c1 as the molecule, how does the inhibition (PRVABC59, Concentration 49.5 uM, Number of replicates 2.0, Standard deviation 2.899910202869395 %) read?
A: -3.85%

Q: And the inhibition (PRVABC59, Concentration 99.01 uM, Number of replicates 2.0, Standard deviation 1.8938189888494774 %)?
A: -1.59%

Q: What about the inhibition (PRVABC59, Concentration 198.0 uM, Number of replicates 2.0, Standard deviation 2.221432806498782 %) of the same molecule?
A: 1.83%

Q: Which inhibition (PRVABC59, Concentration 49.5 uM, Number of replicates 2.0, Standard deviation 1.718387030901429 %) does the source give for c1ccc(Oc2cccc(CN3CC[C@H](c4c[nH]c5ccccc45)C3)c2)nc1 here?
A: 8.48%

Q: And the inhibition (PRVABC59, Concentration 99.01 uM, Number of replicates 2.0, Standard deviation 4.990297794195134 %)?
A: 10.1%

Q: What about the inhibition (PRVABC59, Concentration 198.0 uM, Number of replicates 2.0, Standard deviation 2.6357057708957 %) of the same molecule?
A: 7.12%

Q: What does the source list for CC(C)(COC(=O)c1cccc(F)c1)NC(=O)c1cc(N)cc(Cl)c1?
A: inhibition (PRVABC59, Concentration 49.5 uM, Number of replicates 2.0, Standard deviation 1.1247891306000573 %): 3.45%; inhibition (PRVABC59, Concentration 99.01 uM, Number of replicates 2.0, Standard deviation 1.4129417390724304 %): 5.8%; inhibition (PRVABC59, Concentration 198.0 uM, Number of replicates 2.0, Standard deviation 1.2082537148179389 %): 9%

Q: How did the inhibition [1] turn out when CN(C)CC[C@H]1CCCCN1C(=O)c1cc(Cl)ccc1NS(=O)(=O)c1ccc(Oc2ccccc2Cl)cc1 was run?
A: 18.4%

Q: Which inhibition [1] does the source give for COc1ccc(C)cc1NC(=O)CNC(=O)c1cc(Cl)ccc1NS(=O)(=O)c1ccc(Oc2ccccc2Cl)cc1 here?
A: 36.8%

Q: For CCCCN(CCCC)CCCNC(=O)c1cc(Cl)ccc1NS(=O)(=O)c1ccc(Oc2ccccc2Cl)cc1, which inhibition [1] is on record?
A: 21.4%

Q: How did the inhibition (PRVABC59, Concentration 49.5 uM, Number of replicates 2.0, Standard deviation 3.597880558823145 %) turn out when CCOC(=O)c1cc(Cn2cc(C3CCNCC3)c(C)n2)on1 was run?
A: -0.431%

Q: What about the inhibition (PRVABC59, Concentration 99.01 uM, Number of replicates 2.0, Standard deviation 3.9852172616025077 %) of the same molecule?
A: -1.41%

Q: And the inhibition (PRVABC59, Concentration 198.0 uM, Number of replicates 2.0, Standard deviation 1.6156285466659275 %)?
A: -2.54%

Q: Which inhibition [3] does the source give for CCN(Cc1cccc(Cl)c1)C(=O)C1CCN(c2ccc(C=O)cc2)CC1 here?
A: 25.7%

Q: Which inhibition [3] does the source give for O=Cc1ccc(N2CCC(C(=O)NCC(=O)NCC(F)(F)F)CC2)cc1 here?
A: 14.1%

Q: Which inhibition (PRVABC59, Concentration 49.5 uM, Number of replicates 2.0, Standard deviation 1.5561137405269672 %) does the source give for O=C1CC[C@H](NS(=O)(=O)c2ccc(Oc3ccccc3)cc2)CN1 here?
A: -0.043%

Q: What about the inhibition (PRVABC59, Concentration 99.01 uM, Number of replicates 2.0, Standard deviation 3.695498054770985 %) of the same molecule?
A: 1.03%

Q: And the inhibition (PRVABC59, Concentration 198.0 uM, Number of replicates 2.0, Standard deviation 2.148089661510246 %)?
A: 4.02%

Q: CN1CCN(C[C@H]2CCCN(C(=O)C3CCN(c4ccc(C=O)cc4)CC3)C2)CC1 was tested. Which inhibition [3] did it give?
A: 26.6%

Q: With O=C(Nc1cc(Cl)c(Br)cn1)c1cc(Cl)ccc1NS(=O)(=O)c1ccc(Oc2ccccc2Cl)cc1 as the molecule, how does the inhibition [1] read?
A: 21.5%

Q: COc1ccccc1N1CCN(C(=O)c2cc(Cl)ccc2NS(=O)(=O)c2ccc(Oc3ccccc3Cl)cc2)CC1 was tested. Which inhibition [1] did it give?
A: 8.47%

Q: With CCCCCC(=O)N[C@H](C(=O)N1CCNCC1)c1ccc(OCc2ccccc2)cc1 as the molecule, how does the inhibition (PRVABC59, Concentration 49.5 uM, Number of replicates 2.0, Standard deviation 1.7917326625540275 %) read?
A: 4.67%

Q: And the inhibition (PRVABC59, Concentration 99.01 uM, Number of replicates 2.0, Standard deviation 0.5287703153202195 %)?
A: 6.96%

Q: And the inhibition (PRVABC59, Concentration 198.0 uM, Number of replicates 2.0, Standard deviation 2.046607805316139 %)?
A: 15.5%

Q: CC(C)(C)C1CCC(NC(=O)C2CCN(c3ccc(C=O)cc3)CC2)CC1 (configuration not stated) was tested. Which inhibition [3] did it give?
A: 19.9%

Q: With CNC(=O)c1cc(Cl)ccc1NS(=O)(=O)c1ccccc1C#N as the molecule, how does the inhibition (PRVABC59, Concentration 49.5 uM, Number of replicates 2.0, Standard deviation 0.40133767512043944 %) read?
A: -0.968%

Q: And the inhibition (PRVABC59, Concentration 99.01 uM, Number of replicates 2.0, Standard deviation 0.5142138896626179 %)?
A: 2.22%

Q: And the inhibition (PRVABC59, Concentration 198.0 uM, Number of replicates 2.0, Standard deviation 0.5330264726702436 %)?
A: 6.88%

Q: Which inhibition (PRVABC59, Concentration 49.5 uM, Number of replicates 2.0, Standard deviation 0.6075306368947093 %) does the source give for Cc1cn[nH]c1CNC(=O)[C@]1(c2ccc(F)cc2)CCCNC1 here?
A: -1.57%

Q: What about the inhibition (PRVABC59, Concentration 99.01 uM, Number of replicates 2.0, Standard deviation 1.8661703506616794 %) of the same molecule?
A: -1.53%

Q: What about the inhibition (PRVABC59, Concentration 198.0 uM, Number of replicates 2.0, Standard deviation 3.178641642000431 %) of the same molecule?
A: -0.596%

Q: How did the inhibition [3] turn out when O=Cc1ccc(N2CCC(C(=O)NC3CCN(Cc4ccccc4F)CC3)CC2)cc1 was run?
A: 30.5%

Q: For O=Cc1ccc(N2CCC(C(=O)N[C@H](c3ccccc3)C(F)(F)F)CC2)cc1, which inhibition [2] is on record?
A: 21.9%

Q: COc1ccccc1CN(C(=O)C1CCN(c2ccc(C=O)cc2)CC1)C1CC1 was tested. Which inhibition [3] did it give?
A: 22.9%

Q: Which results are given for COc1cc(C(=O)N[C@@H](C)C(=O)O)nc(N2CCNCC2)n1?
A: inhibition (PRVABC59, Concentration 49.5 uM, Number of replicates 2.0, Standard deviation 3.0621707227487582 %): -2.42%; inhibition (PRVABC59, Concentration 99.01 uM, Number of replicates 2.0, Standard deviation 2.7922991833774398 %): -4.48%; inhibition (PRVABC59, Concentration 198.0 uM, Number of replicates 2.0, Standard deviation 4.213476922411081 %): -5.18%

Q: Cn1cc(NC(=O)c2ccccc2C(F)(F)F)c(-c2cncnc2)n1 was tested. Which inhibition (PRVABC59, Concentration 49.5 uM, Number of replicates 2.0, Standard deviation 0.5843407664944392 %) did it give?
A: -0.924%

Q: And the inhibition (PRVABC59, Concentration 99.01 uM, Number of replicates 2.0, Standard deviation 1.1605089640346764 %)?
A: -1.59%

Q: And the inhibition (PRVABC59, Concentration 198.0 uM, Number of replicates 2.0, Standard deviation 1.8442828705639565 %)?
A: -2.26%

Q: For COc1ncc(Br)cc1NC(=O)c1cc(Cl)ccc1NS(=O)(=O)c1ccc(Oc2ccccc2Cl)cc1, which inhibition [1] is on record?
A: 22.9%

Q: How did the inhibition [3] turn out when O=Cc1ccc(N2CCC(C(=O)Nc3ccc(I)cn3)CC2)cc1 was run?
A: 22.7%

Q: For O=C(c1cc(Cl)ccc1NS(=O)(=O)c1ccc(Oc2ccccc2Cl)cc1)N1CCN(S(=O)(=O)N2CCOCC2)CC1, which inhibition [1] is on record?
A: 12.2%

Q: How did the inhibition [3] turn out when O=Cc1ccc(N2CCC(C(=O)N3CCC(O)(Cc4ccccn4)CC3)CC2)cc1 was run?
A: 25%

Q: Which results are given for Cn1cc(CNC(=O)c2ccccc2[C@@H]2CCCNC2)cn1?
A: inhibition (PRVABC59, Concentration 49.5 uM, Number of replicates 2.0, Standard deviation 1.3820269413959925 %): -1.82%; inhibition (PRVABC59, Concentration 99.01 uM, Number of replicates 2.0, Standard deviation 1.129463511127855 %): -0.227%; inhibition (PRVABC59, Concentration 198.0 uM, Number of replicates 2.0, Standard deviation 0.6425212666298173 %): 0.6%

Q: Which inhibition [1] does the source give for Cc1ccc(CN(CCN(C)C)C(=O)c2cc(Cl)ccc2NS(=O)(=O)c2ccc(Oc3ccccc3Cl)cc2)s1 here?
A: 17.7%

Q: With Cc1cc(CO)c2cccc(Cc3ccccc3NC(=O)C(=O)c3ccco3)c2n1 as the molecule, how does the inhibition (PRVABC59, Concentration 49.95 uM, Number of replicates 2.0, Standard deviation 1.1299050836597035 %) read?
A: -5.88%

Q: And the inhibition (PRVABC59, Concentration 99.9 uM, Number of replicates 2.0, Standard deviation 1.5981540207314013 %)?
A: 1.55%
